The values that follow come from the RNAGym collection of RNA variant scans (doi:10.1093/nar/gkz1192).

Read counts are not given, so values of variants with three or more changes are uncertain.

To fix the notation:
B1: CPEB3 Ribozyme (parent)
chain: UAACAGGGGGCCACAGCAGAAGCGUUCACGUCGCAGCCCCUGUCAGAUUCUGGUGAAUCUGCGAAUUCUGCUGUAUAUCUC

In the series the parent is B1. In words: self-cleavage, relative activity (ratio to wild type); higher = more cleavage; in vitro, sequencing. The procedure, abridged:
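Relative activity compares each variant's cleaved/total read fraction with that of the unmutated ribozyme. To get these fractions, barcoded CPEB3 ribozyme libraries from rounds of error-prone PCR were transcribed with T7 RNA polymerase for 5 hours at 37°C and then given 15 min of DNase I treatment before EDTA was added. The RNAs were reverse transcribed with template switching and sequenced on Illumina, and DNA sequencing linked barcodes to variants. A minimum of 5 reads applied, and three batches were averaged.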
With UAACAGGGGGCCACAGCAGAAGCGUCCACGUCGCAGCCCCUGUCUGAUUCUGGAGAAUCUGUGAAUUCUGCUGUAUAUCUC, the self-cleavage was determined as 0.11.

As to UAACAGGGGGCCACAGCAGAAGCGUCCACGUCGCAGCCCCUGUCUGAUUCUGGUGAAUCUGCGAACUCUGCUGUAUAUUUC, the self-cleavage amounted to 0.15.

Turning to UAACAGGGGGCCACAGCAGAAGCGUCCACGUCGCUGCCCCUGUCAGAUUCCGGUGAACCUGCGAAUUCAGCUGUAUAUCUC, the self-cleavage was 0.07.

For the variant UAACAGGGGGCCACAGCAGAAGCGUCCACGUCGCUGCCCCUGACAGAUUCUGGUGAAUCUGCGAGUUCUGCAGUAUAUCUC, the self-cleavage was found to be 0.05.

For UAACAGGGGGCCACAGCAGAAGCGUCCACGUCGCAGCCCCUGUCUGAUUCUGGUGAAUCCGCGAAUUCUGCUGUAUAUCUC, the self-cleavage amounted to 0.09.

UAACAGGGGGCCACAGCAGAAGCGUCCACGUCGCAGCCCCUGUCAGCUUCUGGCGAAUCUGCGAAUUCUGCUGUAUAUCUC: the self-cleavage was determined as 0.21.

As to UAACAGGGGGCCACAGCAGAAGCGUCCACGUCGCAGCCCCUGUCUGAUUCUGGUGAAUCUGCGAAUUCCUCUGUAUAUCUC, the self-cleavage worked out at 0.24.

As to UAACAGGGGGCCACAGCAGAAGCGUCCACGUCGCAGCCCCUGUCGGAUUCUGGUGAAUCUGCGAGUUCUGCUGUAUAUCUC, the self-cleavage is 0.16.

With UAACAGGGGGCCACAGCAGAAGCGUCCACGUCGCAGCCCCUGUCUGAUUCUGGUGAAUCUGCGAAUUCUGCUGUACUUCUC, the self-cleavage was determined as 0.08.

For UAACAGGGGGCCACAGCAGAAGCGUCCACGUCGCAGCCCCUGUCUGAUUCUGGUGAAUCUGCGAAUUCUGCCGUAUAUCUC, the self-cleavage came to 0.15.

On to UAACAGGGGGCCACAGCAGAAGCGUCCACGUCGCAGCCCCUGUCAGCUUCCGGUGAAUCUGCGAAUUCUGCUGUAUAUCUC, for which the self-cleavage came out at 0.35.

As to UAACAGGGGGCCACAGCAGAAGCGUCCACGUCGCAGCCCCUGUCUGAUUCUGGCGGAUCUGCGAAUUCUGCUGUAUACCUC, the self-cleavage was determined as 0.34.

As to UAACAGGGGGCCACAGCAGAAGCGUCCACGUCGCAGCCCCUGUCGGAUUCUGGUGGAUCUGCGAAUUCUGCUGUAUAUCUC, the self-cleavage is 0.1.

For the variant UAACAGGGGGCCACAGCAGAAGCGUCCACGUCGCAGCCCCUGUCGGAUUCUGGUGAAUCUGCGAAUCCUGCUGUAUAUCUC, the self-cleavage amounted to 0.05.

For the variant UAACAGGGGGCCACAGCAGAAGCGUCCACGUCGCAGCCCCUGUCGGAUUCUGGUGAAUCUGCGAAUACUGCUGUAUAUCUC, the self-cleavage is 0.41.

Take UAACAGGGGGCCACAGCAGAAGCGUCCACGUCGCAGCCCCUGUCAGGCUCUGGUGAAUCUGCGUAUUCUGCUGUAUAUCUC: the self-cleavage is 0.24.

For the variant UAACAGGGGGCCACAGCAGAAGCGUCCACGUCGCUGCCCCUGUCAGAUUCUGGUGAAACUGCGAAUUCUGCUGUAUAUCUC, the self-cleavage is 0.17.

On to UAACAGGGGGCCACAGCAGAAGCGUCCACGUCGCAGCCCCUGUCGGAUUCAGGUGAAUCUGCGGAUUCUGCUGUAUACCUC, for which the self-cleavage amounted to 0.09.

As for UAACAGGGGGCCACAGCAGAAGCGUCCACGUCGCAGCCCCUGUCGGAUUCCGGCGGAUCUGCGAAUUCUGCUGUAUAUCUC, the self-cleavage came to 0.24.

Turning to UAACAGGGGGCCACAGCAGAAGCGUCCACGUCGCGGCCCCUGUCAGAUUCUGGUGAAUCCGCGAAUUCUGCCGUAUAUCUC, the self-cleavage was found to be 0.63.

UAACAGGGGGCCACAGCAGAAGCGUCCACGUCGCAGCCCCUGUCCGAUACUGGUGGAUCUGCGAGUUCUGCUGUAUAUCUC: the self-cleavage amounted to 0.06.

For UAACAGGGGGCCACAGCAGAAGCGUCCACGUCGCAGCCCCUGUCAGGUUCUGGUGUAUCUGCGAAUUCUGCUGUACAUCUC, the self-cleavage was 0.16.

In the case of UAACAGGGGGCCACAGCAGAAGCGUCCACGUCGCUGCCCCAGUCAGAUUCUGGUGAAUCUGCGAAUUCUGCUGUAUAUCUC, the self-cleavage worked out at 0.33.

For the variant UAACAGGGGGCCACAGCAGAAGCGUCCACGUCGCUGCCCCUGUCAGAUUCUGGUGAAUCUGCGAAUUCUGCGGUAUUUCUC, the self-cleavage is 0.14.

For the variant UAACAGGGGGCCACAGCAGAAGCGUCCACGUCGCUGCCCCUGUCAGACUCUGGUGAAUCUGCGAAUUCUGCCGUAUAUCUC, the self-cleavage was 0.07.

On to UAACAGGGGGCCACAGCAGAAGCGUCCACGUCGCAGCCCCUGUCCGAUUCUGGUGAAUCUGCGAAUUCUGCAGUAUAUCUC, for which the self-cleavage is 0.29.

Consider UAACAGGGGGCCACAGCAGAAGCGUCCACGUCGCUGCCCCUGACGGGUUCUGGUGAAUCUGCGGAUUCUGCUGUAUAUCUC, for which the self-cleavage worked out at 0.2.

As for UAACAGGGGGCCACAGCAGAAGCGUCCACGUCGCAGCCCCUGUCCGAUUCUGGUGAAUCUGCGAAUUCUGCUGGAUAUCUC, the self-cleavage is 0.38.

Consider UAACAGGGGGCCACAGCAGAAGCGUCCACGUCGCAGCCCCUGUCGGACACUGGUGAAUCUGCGAAUUCUGCCGUAUAUCUC, for which the self-cleavage was 0.11.

Consider UAACAGGGGGCCACAGCAGAAGCGUCCACGUCGCUGCCCCUGACAGAUUCUGGUGCAUCUGCGAAUUCUGCUGUGUAUCUC, for which the self-cleavage was found to be 0.07.

In the case of UAACAGGGGGCCACAGCAGAAGCGUCCACGUCGCAGCCCCUGUCCGAUACUGGUGAACCUGCGAAUUCUGCUGUAUAUCUC, the self-cleavage came to 0.19.

For UAACAGGGGGCCACAGCAGAAGCGUCCACGUCGCAGCCCCUGUCUGAUUCAGGUGACUCUGCGAAUUCUGCUGUAUAUCUC, the self-cleavage was 0.05.

Take UAACAGGGGGCCACAGCAGAAGCGUCCACGUCGCUGCCCCUGUCAGAUUCUGGUGAAUCUGCGAAUUCUGCUGUAUACCUC: the self-cleavage was 0.15.

Regarding UAACAGGGGGCCACAGCAGAAGCGUCCACGUCGCAGCCCCUGUCGGAUUCUGGUGAAUCUGCGAACUCCGCAGUAUAACUC, the self-cleavage was 0.06.
